Results reported in patent US9420793B2, “Antiparasitic compounds” (Avista Pharma Solutions, priority 2015, dated 2016).

Tested on: R. sanguineus, D. variablis, A. americanum, and I. scapularis
Experiment: R. sanguineus, D. variablis, A. americanum, and I. scapularis residual adult contact assay
Details: versus fluralaner, afoxolaner, (+/−)sarolaner; several tick species
Text: R. sanguineus, D. variablis, A. americanum, and I. scapularis Residual Adult Contact Assay

In the case of `O=C(CC(F)(F)F)N1CC2(C1)OCc1cc(C3=NSC(c4cc(Cl)c(F)c(Cl)c4)(C(F)(F)F)C3)ccc12` (stereo not shown) [Compound 1, 1-[6-[5-(3,5-dichloro-4-fluoro-phenyl)-5-(trifluoromethyl)-4H-isothiazol-3-yl]spiro[1H-isobenzofuran-3,3′-azetidine]-1′-yl]-3,3,3-trifluoro-propan-1-one], the “tick potency by contact relative to commercially available standards” value is reported as “superior potency by contact”.
